Laboratory results as given in PubChem BioAssay AID1671193 (National Center for Advancing Translational Sciences (NCATS), 2021).
Screen size: about 150,000 compounds; about 180 (0.12%) were called active. Inconclusive means that the source gave no clear call. Such entries were picked first, then a sample of the others. The call rests on the fitted dose curve; in most records, active means well fitted cell-killing curve with a large enough effect; inconclusive means small, poorly fitted or top-dose-only effect, or effect the other way; inactive means flat fitted curve, though single readings scatter. Potencies beside an inconclusive call are fits to weak or partial responses and may not hold up.

Experiment: GF-AFC viability counterscreen for inhibitors of alpha-synuclein gene (SNCA) expression; further: nearly all actives have a fitted effect of over 30% in size;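 on activity change, negative = cytotoxicity: 0% = DMSO-treated cells and -100% = medium-only wells without cells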
Conditions: HEK-293-SNCA-luc viability, GF-AFC fluorescence, 24 h; activity change, negative = cytotoxicity: at 57.1 µM (top of the series) unless noted
Summary of the method: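 HEK-293-SNCA-luc cells (1500/well) plated 24 h, then exposed 24 h to a dilution series; GF-AFC added 30 min at 37C, fluorescence 405/540 nm; normalised to medium-only and DMSO wells, Hill fit.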
Potency means the concentration at half of the fitted maximal effect; tags describe the fitted curve by direction and shape.

Row | Structure (SMILES) | Potency | activity change, negative = cytotoxicity
1 | CN(C(=O)C1C2C(=O)N(C3CCCCCC3)C[C@@]23C=C[C@@H]1O3)C1CCSCC1 (stereo partly drawn) | inconclusive: 39.8 µM [cytotoxic, single point] | –
2 | COCc1ccccc1-c1cn(C)c(=O)n2cc(COc3ccc(Cl)cc3)nc12 | inconclusive: 25.1 µM [cytotoxic, partial curve] | –
3 | CC1(C)[C@H](Cc2cc(CN3CCCCC3)on2)C[C@@H]1NCc1ccccn1 | inconclusive: 25.1 µM [cytotoxic, partial curve, poor fit] | –
4 | CCn1ncc(CN2CCCC23CCN(c2cc(C)nc4ccccc24)CC3)c1C | inactive | –
5 | COc1ccc(Cl)cc1NC(=O)Cn1nc2c(cc1=O)CCCCC2 | inactive | –
6 | CSCc1noc(CNC(=O)c2ccc(-c3ccccc3Cl)o2)n1 | inactive | –
7 | COc1ccc(-c2cc(=O)oc3c4c(ccc23)OCN(Cc2ccccc2)C4)cc1 | inconclusive: 17.8 µM [rising, partial curve, poor fit] | –
8 | CCS(=O)(=O)c1ncc(Cl)c(C(=O)NCc2ccccc2)n1 | inconclusive: 39.8 µM [cytotoxic, single point] | –
9 | Cc1ccc(Nc2c(-c3ccc(C)o3)nc3cccc(C)n23)cc1 | inconclusive: 17.8 µM [cytotoxic, single point] | –
10 | COCCCNC(=O)c1cc(C2CC2)nc2c1c(C1CCCN1)nn2-c1ccccc1 (stereo not drawn) | inactive | –
11 | Cc1cccc(-c2cccc(CN3CCC(NC(=O)c4ccccc4Cl)CC3)c2)c1 | inconclusive: 39.8 µM [cytotoxic, single point] | –
12 | Cc1ccc2oc(-c3cc(NC(=O)c4oc5ccccc5c4C)ccc3Cl)nc2c1 | inconclusive: 11.2 µM [rising, partial curve, poor fit] | –
13 | COc1ccc(/C=C/C(=O)Nc2ccc3nc4c(c(Nc5ccc(OC)c(OC)c5)c3c2)CCCC4)cc1 | inconclusive: 39.8 µM [cytotoxic, single point] | –
14 | Cc1cccc(CSc2nnc(CCCCCN)o2)c1 | inactive | –
15 | CC#CCn1cc2c3c(cccc31)[C@H](CC(C)C)N[C@H](C(=O)NCCNC(C)=O)C2 | inactive | –
16 | O=C(C1CCCC1)N1CC2(CCN(C3COC3)C2)Cc2ccccc21 (stereo not drawn) | inactive | –
17 | COc1ccc(NC(=O)CN2C(=O)NC3(CCOCC3)C2=O)c(OC)c1 | inconclusive: 39.8 µM [cytotoxic, single point] | –
18 | COC(=O)NC1CCN(Cc2ccc(-c3ccsc3)cc2)C1 (stereo not drawn) | inconclusive: 7.08 µM [cytotoxic, single point] | –
19 | COc1ncccc1-c1nc2cc(C(=O)NCc3ccc(F)cc3)ccc2o1 | inactive | –
20 | COC(=O)c1ccc(Cl)cc1NC(=O)N(Cc1ccc(OC)cc1)C1CCN(C(C)=O)CC1 | inconclusive: 14.1 µM [cytotoxic, partial curve, poor fit] | –
21 | Cc1ccc(S(=O)(=O)/C=C/C#N)cc1 | inconclusive: 39.8 µM [cytotoxic, single point] | –
22 | CN1C(=O)C2(CCN(C(=O)c3cc4c(s3)CCCC4)CC2)c2ccccc21 | inconclusive: 12.6 µM [cytotoxic, partial curve, poor fit] | –

Row | Structure (SMILES) | Potency | activity change, negative = cytotoxicity
23 | COc1cc(C)c(C=CC(C)=CC=CC(C)=CC(=O)O)c(C)c1C | inconclusive: 1.71 µM [cytotoxic, full curve, poor fit] | –
24 | Cn1nc(-c2ccc(C(F)(F)F)cc2)nc2c(=O)n(C)c(=O)nc1-2 | inconclusive: 23.8 µM [cytotoxic, partial curve, poor fit] | –
25 | NC1CCc2nn(CC(=O)N(Cc3ccccc3)Cc3ccco3)c(=O)n2CC1 (stereo not drawn) | inactive | –
26 | CCOC(=O)C1CCCN(C(=O)c2cc(C(C)(C)C)nc3c2cnn3C)C1 (stereo not drawn) | – | inactive: -7.85% [at 12.5 µM]
27 | O[C@@H]1C[C@@H](c2nc(-c3ccc4c(c3)OCO4)no2)N(CCCc2ccccc2)C1 | inactive | –
28 | O=C1CC(c2noc(-c3ccc(F)cc3)n2)CN1c1ccc(Cl)cc1 (stereo not drawn) | inactive | –
29 | O=C(Nc1ccc(F)cc1)C1CCc2nc(N3CCN(C(=O)C4CCC4)CC3)sc2C1 (stereo not drawn) | inconclusive: 3.55 µM [cytotoxic, full curve, poor fit] | –
30 | O=C(c1ccc2nnc(-c3ccc(C(F)(F)F)cc3)n2c1)N1CCCC1 | inactive | –
31 | COc1ccc(CC(=O)Nc2cc(-c3cn4cccnc4n3)ccc2OC)cc1 | inactive | –
32 | COc1cccc(-c2nc3cc4c(cc3cc2CN2CCSCC2)OCO4)c1OC | inconclusive: 14.1 µM [cytotoxic, partial curve, poor fit] | –
33 | CC(=O)c1cccc(NC(=O)Cc2noc3ccccc23)c1 | – | inconclusive: 21.3%
34 | CC1=C(C(=O)OC(C)C)C(c2cccs2)N2C(CC(=O)NC3CC3)=CSC2=N1 (stereo not drawn) | inconclusive: 3.16 µM [cytotoxic, single point] | –
35 | COc1ccc(F)cc1-c1cccc(C(=O)NCCN[S+](=O)([O-])c2cccs2)c1 | inactive | –
36 | COc1ccc(-c2cc(N3CCCC(NC(=O)c4cccc5[nH]ccc45)C3)n[nH]2)cc1 (stereo not drawn) | inconclusive: 28.2 µM [cytotoxic, partial curve, poor fit] | –
37 | O=C(CC1N=C2c3ccccc3N=C(SCc3cccc(Cl)c3)N2C1=O)NCCc1ccccc1 (stereo not drawn) | inconclusive: 28.2 µM [cytotoxic, single point] | –
38 | COc1ccc(C(=O)N2CCCCCCNC(=O)[C@@H]3CCC[C@@H]32)c(OC)n1 | inactive | –
39 | CN(C)c1nc2c(c(N3C[C@@H](CN4CCCC4)[C@@H](CO)C3)n1)CCCC2 | inconclusive: 22.4 µM [cytotoxic, partial curve, poor fit] | –
40 | COC(=O)c1ccccc1NC(=O)C1CCCN(c2ncnc3onc(C)c23)C1 (stereo not drawn) | inconclusive: 20 µM [cytotoxic, single point] | –
41 | Cc1cccc(Nc2ncncc2-c2nc(-c3ccccc3)no2)c1C | inactive | –
42 | COc1ccc(CN2CCC3(C2)C(=NC2CCCCC2)NC(=O)N3c2cccc(OC)c2)cc1 (stereo not drawn) | inconclusive: 7.08 µM [cytotoxic, single point] | –
43 | CC(C)(C)OC(=O)Nc1ccc(-c2cc(C(=O)NCCCCCCC(=O)NO)no2)cc1 | inconclusive: 21.5 µM [cytotoxic, partial curve] | –
